The text below walks through data of the supplement of paper PMC10369915.

The other results are listed elsewhere or left out. Rule as the data show it: active = 3.2 or more and inactive = the rest. The signal is at background level for most entries.
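Also: displayed peptides selected on beads carrying the immobilized SH2 domain, with library peptides lacking any tyrosine serving as negative controls.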

The first assay addresses SHP2 C-SH2 domain E139D. The assay is described as follows: enrichment score (SH2-bound / input frequency) (ratio); bacterial display of known human phosphotyrosine sites (pTyr-Var adds point mutants) read by sequencing; higher = stronger binding; tyrosines were phosphorylated by kinases first. As to conditions: peptide library: pTyr-Var.
Turning to GIYEDYVEGLR [MYL6_Y89_T85I], the enrichment score is inactive: 0.675.

Turning to TVVGLYQKSSL [MYH7_Y609], the enrichment score was inactive: 1.05.

Take PNRILYGDFQQ [MYH7_Y715_R719Q]: the enrichment score was inactive: 0.761.

For the molecule KVGNEYVNKGQ [MYH7_Y410_T412N], the enrichment score was inactive: 0.619.

With PTDCVYVMPTV [MYO7A_Y1668_S1666C], the enrichment score is inactive: 0.86.

In the case of PGAPAYCVLME [MYO5A_Y1245_R1246C], the enrichment score is inactive: 0.935.

With HNLYSYPTKYE [MYO3A_Y1396_H1400Y], the enrichment score was inactive: 0.937.

Take KFVKMCDNHQL [MYO9A_Y203_Y203C_YF]: the enrichment score is inactive: 0.813.

Regarding HNLFSYPTKFE [MYO3A_Y1396_H1400Y_YF], the enrichment score is inactive: 1.87.

As to NFDRVYIFHLR [MYOF_Y1137_YF], the enrichment score is active: 3.29.

Regarding HNLFSYPTKHE [MYO3A_Y1396_YF], the enrichment score is inactive: 1.58.

On to SKEPFYVRCIK [MYO1D_Y586_YF], for which the enrichment score is inactive: 0.562.

With FRSSLYLLMET [MYO5C_Y633], the enrichment score is active: 3.9.

For AGIVDYNIIGW [MYH7_Y588], the enrichment score is inactive: 0.661.

On to GTFEDYVEGLR [MYL6_Y89_YF], for which the enrichment score was inactive: 0.894.

On to ADNSAYLMGLN [MYH7_Y386_K383N], for which the enrichment score was inactive: 0.652.

In the case of SSMIDYNTLEK [MYOC_Y479_P481T], the enrichment score was inactive: 0.601.

As for KDQGTYEDFVE [MYL6_Y86_YF], the enrichment score was inactive: 0.802.

For FAGRDYSLDEF [MYOF_Y1705_G1701A_YF], the enrichment score was inactive: 1.03.

Another assay has as its target SHP2 C-SH2 domain wild-type. Described as above. As to conditions: peptide library: pTyr-Var.
Turning to GIYEDYVEGLR [MYL6_Y89_T85I], the enrichment score was inactive: 0.839.

As for TVVGLYQKSSL [MYH7_Y609], the enrichment score was inactive: 1.06.

For PNRILYGDFQQ [MYH7_Y715_R719Q], the enrichment score was inactive: 0.868.

For the molecule KVGNEYVNKGQ [MYH7_Y410_T412N], the enrichment score is inactive: 0.612.

As to PTDCVYVMPTV [MYO7A_Y1668_S1666C], the enrichment score is inactive: 1.15.

In the case of PGAPAYCVLME [MYO5A_Y1245_R1246C], the enrichment score was inactive: 1.61.

On to HNLYSYPTKYE [MYO3A_Y1396_H1400Y], for which the enrichment score was inactive: 0.893.

In the case of KFVKMCDNHQL [MYO9A_Y203_Y203C_YF], the enrichment score was inactive: 0.641.

In the case of HNLFSYPTKFE [MYO3A_Y1396_H1400Y_YF], the enrichment score was inactive: 1.21.

In the case of NFDRVYIFHLR [MYOF_Y1137_YF], the enrichment score was inactive: 2.62.

Regarding HNLFSYPTKHE [MYO3A_Y1396_YF], the enrichment score is inactive: 1.22.

For SKEPFYVRCIK [MYO1D_Y586_YF], the enrichment score is inactive: 0.717.

Turning to FRSSLYLLMET [MYO5C_Y633], the enrichment score was active: 3.65.

On to AGIVDYNIIGW [MYH7_Y588], for which the enrichment score was inactive: 0.737.

Regarding GTFEDYVEGLR [MYL6_Y89_YF], the enrichment score is inactive: 0.918.

In the case of ADNSAYLMGLN [MYH7_Y386_K383N], the enrichment score is inactive: 0.729.

Consider SSMIDYNTLEK [MYOC_Y479_P481T], for which the enrichment score was inactive: 0.533.

As to KDQGTYEDFVE [MYL6_Y86_YF], the enrichment score is inactive: 0.126.

In the case of FAGRDYSLDEF [MYOF_Y1705_G1701A_YF], the enrichment score is inactive: 0.822.

The target of a further assay is SHP2 N-SH2 domain L43F. The description is as above. Conditions: peptide library: pTyr-Var.
For GIYEDYVEGLR [MYL6_Y89_T85I], the enrichment score is inactive: 0.772.

Consider TVVGLYQKSSL [MYH7_Y609], for which the enrichment score was inactive: 0.738.

In the case of PNRILYGDFQQ [MYH7_Y715_R719Q], the enrichment score is inactive: 0.879.

Consider KVGNEYVNKGQ [MYH7_Y410_T412N], for which the enrichment score was inactive: 0.506.

In the case of PTDCVYVMPTV [MYO7A_Y1668_S1666C], the enrichment score is inactive: 1.11.

For the molecule PGAPAYCVLME [MYO5A_Y1245_R1246C], the enrichment score was inactive: 0.916.

Turning to HNLYSYPTKYE [MYO3A_Y1396_H1400Y], the enrichment score is inactive: 0.851.

KFVKMCDNHQL [MYO9A_Y203_Y203C_YF]: the enrichment score is inactive: 0.706.

In the case of HNLFSYPTKFE [MYO3A_Y1396_H1400Y_YF], the enrichment score is inactive: 1.43.

For the molecule NFDRVYIFHLR [MYOF_Y1137_YF], the enrichment score is inactive: 2.91.

HNLFSYPTKHE [MYO3A_Y1396_YF]: the enrichment score was inactive: 1.73.

For SKEPFYVRCIK [MYO1D_Y586_YF], the enrichment score is inactive: 0.616.

On to FRSSLYLLMET [MYO5C_Y633], for which the enrichment score is active: 3.41.

On to AGIVDYNIIGW [MYH7_Y588], for which the enrichment score was inactive: 0.695.

For GTFEDYVEGLR [MYL6_Y89_YF], the enrichment score is inactive: 0.869.

Turning to ADNSAYLMGLN [MYH7_Y386_K383N], the enrichment score is inactive: 0.728.

For SSMIDYNTLEK [MYOC_Y479_P481T], the enrichment score was inactive: 0.424.

Consider KDQGTYEDFVE [MYL6_Y86_YF], for which the enrichment score is inactive: 0.98.

Take FAGRDYSLDEF [MYOF_Y1705_G1701A_YF]: the enrichment score is inactive: 0.947.

For another assay, the target named is SHP2 N-SH2 domain T42A. The assay is described as above. Conditions: peptide library: pTyr-Var.
Regarding GIYEDYVEGLR [MYL6_Y89_T85I], the enrichment score was inactive: 0.728.

For TVVGLYQKSSL [MYH7_Y609], the enrichment score is inactive: 0.939.

Turning to PNRILYGDFQQ [MYH7_Y715_R719Q], the enrichment score is inactive: 0.883.

Take KVGNEYVNKGQ [MYH7_Y410_T412N]: the enrichment score is inactive: 0.549.

For the molecule PTDCVYVMPTV [MYO7A_Y1668_S1666C], the enrichment score is inactive: 0.861.

On to PGAPAYCVLME [MYO5A_Y1245_R1246C], for which the enrichment score is inactive: 0.991.

For the molecule HNLYSYPTKYE [MYO3A_Y1396_H1400Y], the enrichment score was inactive: 0.712.

In the case of KFVKMCDNHQL [MYO9A_Y203_Y203C_YF], the enrichment score was inactive: 0.757.

As to HNLFSYPTKFE [MYO3A_Y1396_H1400Y_YF], the enrichment score is inactive: 1.76.

On to NFDRVYIFHLR [MYOF_Y1137_YF], for which the enrichment score is inactive: 2.64.

Regarding HNLFSYPTKHE [MYO3A_Y1396_YF], the enrichment score was inactive: 1.78.

SKEPFYVRCIK [MYO1D_Y586_YF]: the enrichment score was inactive: 0.58.

For FRSSLYLLMET [MYO5C_Y633], the enrichment score is inactive: 3.14.

Consider AGIVDYNIIGW [MYH7_Y588], for which the enrichment score was inactive: 0.66.

For the molecule GTFEDYVEGLR [MYL6_Y89_YF], the enrichment score is inactive: 0.611.

As for ADNSAYLMGLN [MYH7_Y386_K383N], the enrichment score is inactive: 0.653.

On to SSMIDYNTLEK [MYOC_Y479_P481T], for which the enrichment score was inactive: 0.577.

Regarding KDQGTYEDFVE [MYL6_Y86_YF], the enrichment score was inactive: 0.382.

As to FAGRDYSLDEF [MYOF_Y1705_G1701A_YF], the enrichment score is inactive: 0.819.

The target in a further assay is SHP2 N-SH2 domain T52S. The description is as above. Conditions: peptide library: pTyr-Var.
For the molecule GIYEDYVEGLR [MYL6_Y89_T85I], the enrichment score is inactive: 0.852.

Regarding TVVGLYQKSSL [MYH7_Y609], the enrichment score was inactive: 0.916.

As for PNRILYGDFQQ [MYH7_Y715_R719Q], the enrichment score was inactive: 0.92.

Turning to KVGNEYVNKGQ [MYH7_Y410_T412N], the enrichment score is inactive: 0.68.

For PTDCVYVMPTV [MYO7A_Y1668_S1666C], the enrichment score is inactive: 0.933.

With PGAPAYCVLME [MYO5A_Y1245_R1246C], the enrichment score was inactive: 0.904.

HNLYSYPTKYE [MYO3A_Y1396_H1400Y]: the enrichment score was inactive: 0.729.

In the case of KFVKMCDNHQL [MYO9A_Y203_Y203C_YF], the enrichment score is inactive: 0.887.

For HNLFSYPTKFE [MYO3A_Y1396_H1400Y_YF], the enrichment score is inactive: 1.66.

Regarding NFDRVYIFHLR [MYOF_Y1137_YF], the enrichment score is inactive: 2.33.

Regarding HNLFSYPTKHE [MYO3A_Y1396_YF], the enrichment score is inactive: 1.79.

Turning to SKEPFYVRCIK [MYO1D_Y586_YF], the enrichment score was inactive: 0.507.

For FRSSLYLLMET [MYO5C_Y633], the enrichment score was inactive: 2.47.

Regarding AGIVDYNIIGW [MYH7_Y588], the enrichment score was inactive: 0.626.

With GTFEDYVEGLR [MYL6_Y89_YF], the enrichment score was inactive: 0.889.

For ADNSAYLMGLN [MYH7_Y386_K383N], the enrichment score was inactive: 0.644.

With SSMIDYNTLEK [MYOC_Y479_P481T], the enrichment score is inactive: 0.704.

For the molecule KDQGTYEDFVE [MYL6_Y86_YF], the enrichment score is inactive: 0.274.

Regarding FAGRDYSLDEF [MYOF_Y1705_G1701A_YF], the enrichment score was inactive: 0.779.

A further assay concerns the target SHP2 N-SH2 domain wild-type. The assay is described as above. Conditions: peptide library: pTyr-Var.
In the case of GIYEDYVEGLR [MYL6_Y89_T85I], the enrichment score is inactive: 0.673.

With TVVGLYQKSSL [MYH7_Y609], the enrichment score is inactive: 0.99.

Turning to PNRILYGDFQQ [MYH7_Y715_R719Q], the enrichment score was inactive: 1.27.

For the molecule KVGNEYVNKGQ [MYH7_Y410_T412N], the enrichment score is inactive: 0.629.

Turning to PTDCVYVMPTV [MYO7A_Y1668_S1666C], the enrichment score was inactive: 1.5.

In the case of PGAPAYCVLME [MYO5A_Y1245_R1246C], the enrichment score was inactive: 1.33.

As for HNLYSYPTKYE [MYO3A_Y1396_H1400Y], the enrichment score was inactive: 0.723.

As to KFVKMCDNHQL [MYO9A_Y203_Y203C_YF], the enrichment score is inactive: 0.784.

Regarding HNLFSYPTKFE [MYO3A_Y1396_H1400Y_YF], the enrichment score was inactive: 1.36.

On to NFDRVYIFHLR [MYOF_Y1137_YF], for which the enrichment score is inactive: 2.58.

Take HNLFSYPTKHE [MYO3A_Y1396_YF]: the enrichment score was inactive: 1.48.

As to SKEPFYVRCIK [MYO1D_Y586_YF], the enrichment score is inactive: 0.937.

For FRSSLYLLMET [MYO5C_Y633], the enrichment score was active: 3.55.

For the molecule AGIVDYNIIGW [MYH7_Y588], the enrichment score is inactive: 0.831.

As to GTFEDYVEGLR [MYL6_Y89_YF], the enrichment score was inactive: 0.85.

For ADNSAYLMGLN [MYH7_Y386_K383N], the enrichment score was inactive: 0.846.

On to SSMIDYNTLEK [MYOC_Y479_P481T], for which the enrichment score is inactive: 0.586.

With KDQGTYEDFVE [MYL6_Y86_YF], the enrichment score was inactive: 0.463.

Turning to FAGRDYSLDEF [MYOF_Y1705_G1701A_YF], the enrichment score is inactive: 1.13.
